Experimental data as given in the antibiotic and cytotoxicity screens of Wong et al. (2023).
The other results are listed elsewhere or left out.

What was measured:
[1] = test system: HSkMC (human skeletal muscle cells); assay: cytotoxicity call (relative viability < 0.9); details: 10 µM
[2] = test system: HepG2; assay: cytotoxicity call (relative viability < 0.9); details: 10 µM
[3] = test system: S. aureus RN4220; assay: growth inhibition call (relative growth <= 0.2); details: 50 µM

COCC(=O)N1CC(C)(C)c2cc(-c3csc(NC(=O)c4ccc(F)c(OC(F)(F)F)c4)n3)ccc21
inactive: cytotoxicity call [1] | cytotoxicity call [2] | growth inhibition call [3]

Cc1noc(C)c1S(=O)(=O)Nc1ccc2c(c1)CC(=O)N([C@@H](C)CO)C[C@@H](C)[C@H](CN(C)Cc1ccc3c(c1)OCO3)O2
inactive: cytotoxicity call [1] | cytotoxicity call [2] | growth inhibition call [3]

Cc1noc(C)c1S(=O)(=O)Nc1ccc2c(c1)CC(=O)N([C@H](C)CO)C[C@H](C)[C@H](CN(C)C(=O)NC(C)C)O2
inactive: cytotoxicity call [1] | cytotoxicity call [2] | growth inhibition call [3]

CCN1C[C@@H]2CN(C(=O)c3ccnn3C)C[C@H]2C1=O
inactive: cytotoxicity call [1] | cytotoxicity call [2] | growth inhibition call [3]

COc1ccc(S(=O)(=O)N(C)C[C@@H]2Oc3ccc(NS(C)(=O)=O)cc3CC(=O)N([C@@H](C)CO)C[C@@H]2C)cc1
inactive: cytotoxicity call [1] | cytotoxicity call [2] | growth inhibition call [3]

COc1ccc2c3c([nH]c2c1)[C@H](CO)N(C[C@]13CCN(CC1)C(=O)c1cccnc1)C(=O)c1cccnc1
inactive: cytotoxicity call [1] | cytotoxicity call [2] | growth inhibition call [3]

C[C@H](CO)N1C[C@H](C)[C@@H](CN(C)S(=O)(=O)c2ccc(F)cc2)Oc2c(NS(=O)(=O)c3ccc(F)cc3)cccc2C1=O
inactive: cytotoxicity call [1] | cytotoxicity call [2] | growth inhibition call [3]

C[C@@H]1CN([C@@H](C)CO)C(=O)Cc2cc(NC(=O)Cn3cnnn3)ccc2O[C@H]1CN(C)C(=O)Nc1cccc2ccccc12
inactive: cytotoxicity call [1] | cytotoxicity call [2] | growth inhibition call [3]

O=C(C[C@H]1CC[C@H](NC(=O)c2cccnc2)[C@@H](CO)O1)NCCN1CCCCC1
inactive: cytotoxicity call [1] | cytotoxicity call [2] | growth inhibition call [3]

COc1ccc(CN(C)C[C@H]2OCCCC[C@H](C)Oc3ccc(NS(=O)(=O)c4c(C)noc4C)cc3C(=O)N([C@H](C)CO)C[C@H]2C)cc1
inactive: cytotoxicity call [1] | cytotoxicity call [2] | growth inhibition call [3]
